Consider 83 variants from the RNAGym collection of RNA variant scans (doi:10.1093/nar/gkz1192).

B1: CPEB3 Ribozyme (parent)
chain: UAACAGGGGGCCACAGCAGAAGCGUUCACGUCGCAGCCCCUGUCAGAUUCUGGUGAAUCUGCGAAUUCUGCUGUAUAUCUC

The source gives no read counts; variants with many changes may rest on few reads.

The series covers variants of B1. The experiment in a line: self-cleavage, relative activity (ratio to wild type); higher = more cleavage; in vitro, sequencing. The method, boiled down:
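Relative activity was defined as the cleaved/total read fraction for a variant divided by the same fraction for the unmutated ribozyme. CPEB3 self-cleaving ribozyme libraries were made by rounds of error-prone PCR, barcoded, and transcribed in vitro with T7 RNA polymerase for 5 hours at 37°C, and cleavage ran through transcription plus a 15 min DNase I step before EDTA. Illumina sequencing of template-switched reverse transcripts gave the reads, and DNA sequencing mapped the barcodes. Averages come from three batches, using variants with at least 5 reads.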
Regarding G6A A56G U80C, the self-cleavage came to 0.09.
Regarding G6A A13C A21G C27A A28G U60C U69A, the self-cleavage was found to be 0.07.
The result for G6A A15U U67G A77G reads 0.12; that for A5U U51C A56U U58C U72G, 0.4.
On to A5U U72A U80A, for which the self-cleavage amounted to 0.64.
Next, G6A A15G U26C U49C U66C: 0.34; A5U U69A U72A: 0.38; G6A A15G U78A: 0.45.
The result for G6A A13U U43A U54A A56G reads 0.12; that for A5U U60C U76C U80C, 0.68; that for A5U U60A A75G, 0.58.
For G6A A18G A56U, the self-cleavage turned out to be 0.04.
Next, A5U U69C U80G: 0.95.
Consider G6A A45G U51C, for which the self-cleavage turned out to be 0.09.
The result for G6A C23U A45U U60G reads 0.2; that for A5U U66C A77U, 0.61.
In the case of A5U U54C A64U U72A, the self-cleavage came to 0.
As to G6A G7U U31A A35G U51A U54C, the self-cleavage stood at 0.07.
The result for G6A G19U A20G U58C A65G reads 0.05; that for G6A A20G U41G A47U, 0.07.
As for G6A A15U U60C, the self-cleavage worked out at 0.24.
The result for G6A C40A A57G A64G reads 0.24.
The result for G6A A21G U60C reads 0.16; that for A5U U60C U72A U76C U78C, 1.02.
Next, G6A A18G A35U A75G: 0.15; G6A A28G A47G U54A: 0.07.
As for G6A C17U A35G U43C A57G, the self-cleavage came out at 0.06.
Next, G6A A13G A28G A57G: 0.09; A5U U69C G70C U78C: 0.24; G6A G8C U41C A45G A47G U80A: 0.07.
The result for G6A A21G A35C C39U reads 0.05; that for G6A A28C U41C U48A U60C, 0.24; that for G6A C23G U26A, 0.05.
Next, G6A C12U A47G U66A: 0.08; A5U U60A U69C: 0.3.
Take G6A A15G C27A A28G A64G: the self-cleavage worked out at 0.09.
The result for G6A A18U U60A U78C reads 0.26.
Next, G6A A13U U41A U49C U51A: 0.05; G6A A18U C32U U43A U58A U67C U74A: 0.04; G6A A18U A47C U72C: 0.23.
The result for G6A G22C U54C G55C U80C reads 0.17; that for G6A A15G C40U A65U, 0.39.
With G6A C38U A56U U67C, the self-cleavage was 0.09.
Next, G6A A20G U58A: 0.14; G6A A13G A21G A75G: 0.16; G6A C23U U72C: 0.08.
Next, G6A A21G A56U U60A U67C A77G: 0.05; G6A A21G C39A A45C U60C A77G: 0.07; A5U U54A U67C: 0.3.
The result for G6A A15G U26A U41G A64G U78A reads 0.14; that for G6A A47G A56G A77G U80A, 0.38; that for G6A A15G U58A A75G, 0.14.
Regarding G6A A18G U43A, the self-cleavage was determined as 0.47.
Next, G6A A18G U43C: 0.05; G6A A13U A21G U49C U80A: 0.08; G6A A15C U43C: 0.09.
Next, A5U U60C U78C: 0.49; A5U U72C A77U: 1.12; G6A G24A C32A U43C A47G U60A U66A: 0.05.
Regarding G6A G10A A28G A47G U49C A65G U72A, the self-cleavage was found to be 0.
Next, G6A A21G U26A G33U A45G A47G U60A: 0.04; G6A A21G U41A U69C A75U: 0.07; G6A A20G U25C U26C U66C: 0.05.
The result for G6A G9U A18G A20G reads 0.06; that for G6A G16A U41C A45U A56G, 0.06; that for G6A A64G U80G, 0.11.
Next, G6A C37U U76A: 0.35; A5U U54A A57G U67A U76G A77G: 0.11; G6A G33C U41G U54A U60C U76G: 0.05.
G6A A15C A77C: the self-cleavage stood at 0.33.
Next, G6A A13U A28G U43C A65G U66C: 0.05.
Next, A5U U58A A64C U74C A75U: 0.3; G6A A47G U48C C50A U60C: 0.2; G6A C23G U72C: 0.66.
Next, A5U U49C G53A U60C: 0.38.
For G6A C12U A56G, the self-cleavage was 0.12.
Take A5U U49C U60A A64G: the self-cleavage is 0.1.
Next, G6A A15G C40U A45G U54A: 0.29; G6A A13G A28G A35G: 0.47; G6A A18U A35U A75C: 0.26.
Next, G6A C23G A35G G52C U67G: 0.05; G6A A15U U25C U54G U72C: 0.2; G6A C23U A35G A57G: 0.12.
